Source: PubChem BioAssay AID488969 (Vanderbilt High Throughput Screening Facility, 2010)
In all, about 110,000 compounds were measured (“z-score”: median about -0.1, highest 2% from about 2 on). Some of the results follow. Activity calls are given as the source filed them.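 The calls were made as follows: active = z-score in the third read window above 3 or below -3; inactive = the rest.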

Molecular target: Metabotropic glutamate receptor 8 (Rattus norvegicus) (UniProt P70579)
Test: rat mGluR8 modulators via GIRK flux, primary screen, cell-based, thallium flux, HTS (AID 488969)
Conditions: HEK293 rat mGluR8, GIRK (G protein-gated inwardly rectifying potassium channel) thallium flux, FluoZin2; at 10 µM; stronger effect = higher value; submaximal glutamate (EC20) added with thallium

Sequence of UniProt P70579 (P70579 whole entry, looked up): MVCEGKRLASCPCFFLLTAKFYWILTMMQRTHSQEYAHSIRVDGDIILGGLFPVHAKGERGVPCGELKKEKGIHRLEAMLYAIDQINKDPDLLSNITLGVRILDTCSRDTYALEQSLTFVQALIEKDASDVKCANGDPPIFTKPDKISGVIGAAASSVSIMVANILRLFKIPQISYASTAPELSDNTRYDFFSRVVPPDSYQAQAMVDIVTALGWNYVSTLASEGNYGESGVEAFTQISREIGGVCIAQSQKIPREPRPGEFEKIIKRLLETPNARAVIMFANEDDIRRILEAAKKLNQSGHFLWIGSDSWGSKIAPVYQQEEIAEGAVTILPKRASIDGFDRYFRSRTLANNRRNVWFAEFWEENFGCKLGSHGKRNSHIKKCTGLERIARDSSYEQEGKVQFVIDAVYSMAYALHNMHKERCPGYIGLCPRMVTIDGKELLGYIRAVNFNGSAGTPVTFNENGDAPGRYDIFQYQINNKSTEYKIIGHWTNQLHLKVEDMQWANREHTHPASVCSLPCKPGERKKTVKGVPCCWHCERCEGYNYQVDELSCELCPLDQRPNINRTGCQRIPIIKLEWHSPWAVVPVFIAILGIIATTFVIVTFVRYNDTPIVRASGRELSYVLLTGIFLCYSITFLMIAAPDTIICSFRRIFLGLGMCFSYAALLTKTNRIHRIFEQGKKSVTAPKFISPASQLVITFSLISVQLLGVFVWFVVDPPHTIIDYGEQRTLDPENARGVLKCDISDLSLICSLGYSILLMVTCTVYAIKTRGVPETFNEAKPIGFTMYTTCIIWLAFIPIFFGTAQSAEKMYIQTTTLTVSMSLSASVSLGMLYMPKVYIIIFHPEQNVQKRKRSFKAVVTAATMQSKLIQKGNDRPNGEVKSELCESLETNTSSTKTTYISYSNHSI

Structure (SMILES)	z-score
COC(=O)NNC(=O)c1ccc(C)cc1	0.0536
COc1ccc(N2CCN(Cc3cc(=O)oc4cc(C)c(Cl)c(C)c34)CC2)cc1	-0.294
COc1ccc(OC)c(NC(=O)c2cnc3n(c2=O)CCS3)c1	0.0316
CC(NC(=O)c1ccco1)C1COc2ccccc2O1 (stereo not drawn)	-0.128
COC(=O)c1sccc1NC(=O)CN(C)NS(=O)(=O)c1ccc(Cl)cc1	-0.811
Cc1cc(SCC(=O)NCCN2C(=O)CSC2=O)nc2c(C)cccc12	-0.139
COc1ccc(-c2nnc(OCc3nc4ccccc4n3C)c3ccccc23)cc1	-0.502
Cc1ccc(N(CC(=O)N2CCOCC2)S(C)(=O)=O)cc1C	-0.191
CCOc1ccc(C(=O)NCC(=O)OCC(=O)N2C(C)CCCC2C)cc1 (stereo not drawn)	-0.00547
CN1CCN(C(=O)CCCOc2cc(=O)n(C)c3ccccc23)CC1	-0.186
COc1ccc(C(=O)C[n+]2ccc3c(c2)nc(-c2cc(OC)c(OC)cc2OC)n3C)cc1	-0.0851
CCOC(=O)N1CCN(c2ccc(O)cc2)CC1	-0.138
COc1ccc(C=NC(CO)C(O)c2ccc([N+](=O)[O-])cc2)cc1 (stereo not drawn)	0.263
COC(=O)c1c(NS(=O)(=O)Cc2ccccc2)sc2c1CCCC2	active: 17
COc1ccc(Nc2nc(C)c(-c3ccccc3)s2)cc1	0.186
COc1ccc(CN=CC2=C(O)CNC2=O)cc1	-0.252
CS(=O)(=O)N1CC(C(=O)NN)Oc2ccc(Cl)cc21 (stereo not drawn)	-0.56
Cc1ccccc1N=Nc1ccc(O)c2ncccc12	active: 4.67
CCC(C)C(=O)Nc1ncc2c(n1)CC(c1cccs1)CC2=O (stereo not drawn)	0.31
CCOc1ccccc1Nc1nc(N)nc(CN(C)C2CCCCC2)n1	0.209
Cc1cccc(C(=O)NC(NC(=S)Nc2ccc(S(N)(=O)=O)cc2)C(Cl)(Cl)Cl)c1 (stereo not drawn)	-0.112
COC(=O)c1ccc(COC(=O)c2ccc(N(C)C)cc2)cc1	-0.847
COc1ccccc1C1/C(=C(/O)c2ccc(C)cc2)C(=O)C(=O)N1CC(C)O (stereo not drawn)	-0.364

Structure (SMILES)	z-score
CCOc1ccc2ccccc2c1/C=N/NC(=O)CNC(=O)Cc1ccccc1	-0.191
O=C(Nc1ccccc1)C1CCN(c2nccs2)CC1	0.101
Cc1cccc2c(CCNC(=O)c3ccc([N+](=O)[O-])cc3)c[nH]c12	-0.233
O=C(CN1CCOCC1)Nc1ccccc1	-0.0461
C/C(CCc1ccc2c(c1)OCO2)=N\N=C(/N)SC1CC(=O)N(c2ccccc2F)C1=O (stereo not drawn)	-0.0429
CC1=C(C(=O)OCC(C)C)C(c2ccccc2Cl)NC(=O)N1C (stereo not drawn)	-0.811
CCOC(=O)C1=C(C)NC(C)=C(C(=O)OCC)C1c1sccc1C	-0.713
CN(C)S(=O)(=O)c1ccc(NC(=O)/C=C/c2ccccc2Cl)cc1	-0.0315
CCCNS(=O)(=O)c1ccc2c(c1)CCCN2C(C)=O	0.0768
Cc1ccccc1-c1cc(C(=O)n2cccn2)c2cc(Cl)ccc2n1	-0.109
CC(C)CNC(=S)NC1CC2CCCC(C1)N2Cc1ccco1 (stereo not drawn)	-0.323
Cn1c(=O)c2c(nc(SCC(=O)NC34CC5CC(CC(C5)C3)C4)n2C)n(C)c1=O	-0.0708
Cc1ccc(N2C(=O)[C@@H]3C(C(=O)CCN4C(=O)c5ccccc5C4=O)=NN[C@@H]3C2=O)cc1	-0.0443
COc1cc2c(cc1OC)C(c1ccc(-c3ccccc3Cl)o1)=NCC2	0.221
C=CCn1c(-c2cccnc2)n[nH]c1=S	0.11
CC(C)NC(=S)NC(=O)/C=C/c1ccc(F)cc1	0.778
O=C(O)CCC(=O)CCC(=O)c1ccccc1	0.419
CCOc1cc(/C=N/NC(=O)CSc2nncn2C)ccc1OCc1ccccc1	-0.181
Cc1ccc(C)c(S(=O)(=O)Nc2ccccc2C(=O)Nc2ccccc2N2CCOCC2)c1	-0.108
Cc1cc(NS(=O)(=O)c2ccc(NC(=O)CCN3C(=O)c4ccccc4C3=O)cc2)no1	0.346
Cc1ccc2c(=O)cc(C(F)F)oc2c1	-0.151
CC(=O)C1=NN(c2ccccc2)C2(S1)S/C(=C\c1ccccc1)C(=O)N2c1ccccc1 (stereo not drawn)	0.304
CCOC(=O)Nc1ccc2c(CN3C(=O)NC4(CCCC4)C3=O)cc(=O)oc2c1	-1.22

Structure (SMILES)	z-score
CC(C)CNC(=O)c1ccccc1NC(=O)CN(c1ccc2c(c1)OCCO2)S(C)(=O)=O	0.117
CCCOP(=O)(OCCC)C(Nc1cccc(C(F)(F)F)c1)c1ccc(C)cc1 (stereo not drawn)	-0.188
O=C(c1cnn2c(C(F)(F)F)cc(-c3ccco3)nc12)N1CCCCCC1	2.24
O=C(CSc1nnnn1-c1ccc(F)cc1)Nc1nc2ccccc2s1	-0.0332
Cc1onc(-c2ccccc2)c1C(=O)NCCc1ccc(S(N)(=O)=O)cc1	0.0031
CCOC(=O)CCSCC(=O)N1N=C(c2cccs2)CC1c1ccc(C)cc1 (stereo not drawn)	-0.183
CCOC(=O)N1CCN(C(=O)c2cc3c(=O)n(C)c4ccccc4c3n2C)CC1	-0.195
Cc1ccc(CNC(=O)C2CC(c3cccc([N+](=O)[O-])c3)=NO2)o1 (stereo not drawn)	0.0173
CC(C)Cc1nnc(NC(=O)CC(=O)Nc2ccccc2C(=O)O)s1	-0.0541
COc1cc(NC(=O)c2ccc(-c3ccc(Br)cc3)o2)ccc1NC(=O)C(C)C	0.116
CC(C)C(=O)NC(NC(=S)Nc1ccc(S(N)(=O)=O)cc1)C(Cl)(Cl)Cl (stereo not drawn)	-0.182
Cc1ccc(NC(=O)CCSCCC(=O)Nc2ccc(C)c(C)c2)cc1C	-0.0616
CCC(=O)Nc1c(C(=O)N2CCN(c3ccccn3)CC2)cnn1-c1ccc(Cl)cc1	0.153
CCCCC(=O)NCCc1ccc(S(N)(=O)=O)cc1	0.0853
O=[N+]([O-])c1ccccc1/C=C/C=N/n1c(-c2ccc(Cl)cc2)n[nH]c1=S	1.13
C=CCNC(=S)NCc1cccnc1	0.214
FC(F)(F)c1cccc(NC(=S)NCc2ccccc2)c1	active: 5.63
O=C(NCCCn1ccnc1)c1cnn2c1NC(c1ccccc1)CC2C(F)(F)F (stereo not drawn)	-2.61
O=C(CSc1ccc2nnc(-c3ccccn3)n2n1)Nc1ccc2c(c1)OCO2	-0.598
O=C(c1cccn2c(=O)c3ccccc3nc12)N1CCN(Cc2ccc3c(c2)OCO3)CC1	0.133
COc1cc(NS(=O)(=O)c2ccc(NC(=O)c3ccco3)cc2)nc(OC)n1	-2.68
COc1ccc(-c2csc(N3C(=O)C4C5c6ccccc6C(c6ccccc65)C4C3=O)n2)cc1 (stereo not drawn)	0.0247
